Measurements as given in PubChem BioAssay AID493208 (National Center for Advancing Translational Sciences (NCATS), 2011).
Hit rate of the full screen: of about 44,000 compounds, about 340 (0.77%) were called active. About 5% were inconclusive and are not listed. Calls come from the whole dose curve; as a rule, active = well fitted inhibition curve with a large enough effect; inconclusive = small, poorly fitted or top-dose-only effect; inactive = flat fitted curve, though single readings scatter. Some of the results follow.

assay: Acumen qHTS Assay for Inhibitors of the mTORC1 Signaling Pathway in MEF (Tsc2-/-, p53-/-) Cells: Sytravon; details: phospho-rpS6 immunofluorescence/PI, 24 h; series mostly up to 38.3 µM; activity change, negative = inhibition: at the top concentration;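 note: plate controls were DMSO for no effect and rapamycin for full effect; nearly all actives have a fitted effect of over 50% in size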
Outline: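 Tsc2-/-, p53-/- mouse embryonic fibroblasts (empty-vector line) exposed to compound 24 hrs at 37 C, fixed, immunostained for phospho-rpS6 and counterstained with propidium iodide. Acumen laser scanning gives % positive cells from Alexa 488/PI ratio, thresholded using 7.5 nM rapamycin; PI count gives viability.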

Activity change, negative = inhibition, inactive:
CCCn1c(=N)c(C(=O)NCc2ccccc2)cc2c(=O)n3cccc(C)c3nc21 -1.24%
Cc1oc2ccc(O)c(CN3CCN(Cc4ccccc4)CC3)c2c1C(=O)Nc1ccccc1 -4.41%
CN(C)c1ccc(CNC(=O)CN2C(=O)c3cccnc3Oc3ccc(Cl)cc32)cc1 2.76%
Cc1nn(CC(=O)NCc2cccc(Br)c2)c(=O)c2c1sc1ccccc12 -2.52%
Cc1cc(C)c(S(=O)(=O)NCCc2cc3cc(C)c(C)cc3[nH]c2=O)c(C)c1 -3.15%
O=S(=O)(NCCc1nnc2ccc(SCc3ccc(C(F)(F)F)cc3)nn12)c1ccccc1 -7.31%
COc1ccc(NC(=O)CSc2nnc(-c3ccc(OC)cc3)s2)cc1 -4.04%
COc1cccc(C(c2sc3nc(-c4ccco4)nn3c2O)N2CCOCC2)c1 (stereo unspecified) -0.525%
Cc1ccc(Nc2nc3ccc(C)cc3nc2-n2nc(C)cc2C)c(C)c1 -0.167%
CC(C)C(=O)Nc1nnc(S(=O)(=O)N2CCCCCC2)s1 -17.6%
O=C(C1COc2ccccc2O1)N1CCN(c2nc3c(F)cccc3s2)CC1 (stereo unspecified) 5.52%
COc1ccc(N(CC(=O)NCc2ccccc2Cl)S(=O)(=O)c2c(C)[nH]c(=O)[nH]c2=O)cc1 -11.4%
COCCNC(=O)C1CCC(CNS(=O)(=O)c2ccc3c(c2)CC(C)N3C(C)=O)CC1 (stereo unspecified) 2.37%
COc1cc(C(CC(=O)Nc2ccc(Br)cn2)N2Cc3ccccc3C2=O)cc(OC)c1OC (stereo unspecified) -13.2%
Cc1ccc(N(Cc2cccs2)C(=O)Nc2cccc(Cl)c2)cc1 4.56%
Cc1ccc(CNC(=O)c2c(O)nc3ccccn3c2=O)cc1 1.46%
Cc1ccc(Cn2c(=O)n(CC3CCC(C(=O)N4CCC(C)CC4)CC3)c(=O)c3sccc32)cc1 (stereo unspecified) 2.84%
Cc1oc2c(c1C(=O)Nc1ccccc1Br)C1=NCCN1C=N2 -14%
COc1cccc(CNC(=O)c2sc3nc4n(c(=O)c3c2C)CCC4)c1 0%
O=C(NCCc1cccs1)c1ccc(Cn2c(SCc3ccccc3)nc3cccnc32)cc1 -0.0387%
COc1ccc(N2CC3=C(C2=O)C(c2ccc(O)c(OC)c2)NC(=O)N3C)cc1 (stereo unspecified) -0.244%
CCOc1ccccc1NC(=O)Cn1cnc2c1c(=O)n(C)c(=O)n2C 1.46%
CCOC(=O)c1ccccc1NC(=O)c1cc2c(s1)-c1c(C)cccc1OC2 4.44%
CC(C)OCCCNc1sc(S(=O)(=O)c2ccccc2)nc1S(=O)(=O)c1ccc(Cl)cc1 -12.8%
CCOc1ccccc1NC(=O)CSc1nc2c(oc3ccccc32)c(=O)n1C(C)C -7.55%
COCCCNC(=O)c1cc(-c2ccc(OC)cc2)nc2n[nH]c(-c3ccc(Cl)cc3)c12 -2.47%
COc1ccc(CCNC(=O)c2cnc3ccc(C)cn3c2=O)cc1OC 0.201%
Cn1ncc2c(NCc3ccc(Cl)cc3)ncnc21 7.54%
Cc1c(C(=O)Nc2ccc(F)cc2F)oc2ccc3c(c12)C(=O)CC(C)(C)O3 0.246%
CCOC(=O)c1cc(-c2ccc(OC)cc2)n(CCC(=O)NCc2ccccc2OC)c1C -0.358%
CCOc1ccc(NC(=O)CSc2ncn[nH]2)cc1 -0.261%
Cc1ccsc1CN(Cc1ccco1)C(=O)c1ccc(Cl)cc1 -1.3%
Cc1ccc(C)c(N2CCN(S(=O)(=O)c3ccc(-c4cc(C(F)(F)F)on4)s3)CC2)c1 -4.17%
O=C(CN1C(=O)COc2ccc(S(=O)(=O)N3CCOCC3)cc21)Nc1ccc(F)c(Cl)c1 -1.73%
O=C(Nc1nc2ccc(F)cc2s1)c1nc(SCc2ccccc2F)ncc1Cl 1.98%
Cc1c(Cl)cccc1NC(=O)C1CCCN(C(=O)c2cnn(-c3ccccc3)c2-n2cccc2)C1 (stereo unspecified) 5.51%
COc1cc(OC)c(N(C)C(=O)c2cn(C)c(=O)c3cc(OC)c(OC)cc23)cc1Cl -20.9%
O=C(NCCc1ccc(Cl)cc1)C(=O)NCC(c1ccc2c(c1)OCO2)N1CCOCC1 (stereo unspecified) -18%
O=C(Nc1cc(C(F)(F)F)ccc1Cl)c1cc(-c2cccs2)nc2ccccc12 -3.88%
Cc1cc(C)c(S(=O)(=O)NCCc2sc(-c3cccnc3)nc2C)c(C)c1 -0.555%
Cc1cc(S(=O)(=O)Nc2cc3c(cc2Cl)n(C)c(=O)c(=O)n3C)ccc1F -5.29%
Cn1c(=O)c2cc(C(=O)N3CCN(c4cccc(C(F)(F)F)c4)CC3)sc2c2ccccc21 0.181%
Cc1nn(S(=O)(=O)c2ccc(F)cc2)c(C)c1S(=O)(=O)N1CCCCC1 -13.7%
Cc1ccc2c(c1)N(C(=O)CCC(=O)Nc1ccc(F)cc1F)CC(C)O2 (stereo unspecified) -0.668%
Cc1c(C(=O)Nc2cccc(C(F)(F)F)c2)oc2ccc(S(=O)(=O)N3CCC4(CC3)OCCO4)cc12 7.63%
CC(C)(C)C(=O)Nc1nnc2n1CCS2 -0.961%
COc1ccc(NC(=O)CSc2c3c(nc4ccccc24)CCC3)cc1Cl -9.87%
CCOc1ccccc1N(C)C(=O)c1cc(S(=O)(=O)NCCc2ccc(Cl)cc2)ccc1F 10.4%
Cc1ccccc1CNC(=O)CCc1cn(Cc2ccccc2C)c2ccccc12 0.426%
CC(C)(C)c1ccc(C(=O)N2CCC(c3noc(-c4ccc(S(=O)(=O)N5CCCC5)cc4)n3)CC2)cc1 -2.18%
CCOc1ccc(NC(=O)c2ccc3c(c2)nnn3C2CCCC2)cc1 0%
CCN(CC)S(=O)(=O)c1ccc(NC(=O)c2ccc3c(=O)n4c(nc3c2)CCCCC4)cc1 -0.225%
CCc1ccccc1NC(=O)CSc1nc(C)c(C(=O)Nc2ccccc2)c(-c2ccc(Cl)cc2)c1C#N 8.91%
Cc1ccc(NC(=O)C2CCN(S(=O)(=O)c3cccc4nonc34)CC2)c(Cl)c1 -1.88%
O=C(Nc1ccc(-c2nc3ccccc3s2)c(O)c1)c1ccc(Br)cc1 5.56%
CCOC(=O)c1c(C)[nH]c(C)c1S(=O)(=O)N1CCC(C(=O)NCc2cccc(C)c2)CC1 5.53%
CCOC(=O)C1=C(CS(=O)(=O)c2ccc(C(C)(C)C)cc2)NC(=O)NC1c1cccc(OC)c1 (stereo unspecified) -11.2%
Cc1cccc(NC(=O)CSc2nnc3[nH]c(=O)cc(C)n23)c1C 1.53%
COc1ccc(N2CCN(C(=O)c3cnc(SC)nc3C)CC2)cc1 -7.52%
COc1ccc(-c2cc3c(=O)n(CC(=O)Nc4ccc(Br)c(C)c4)ccn3n2)cc1OC 8.77%
O=C(CCn1c(=O)c2cccn2c2cccnc21)Nc1ccccc1Br 3.08%
